Hit rate of the full screen: of about 55,000 compounds, about 530 (0.96%) were called active. Inconclusive results, whose numbers are uncertain, are shown with a selection of clear calls. Calls follow the shape of the dose curve; as a rule, active = well fitted cell-killing curve with a large enough effect; inconclusive = small, poorly fitted or top-dose-only effect; inactive = no such curve, though single readings can be large or run the other way. Where the call is inconclusive, the potency comes from a doubtful curve fit.
Test: qHTS Screen for Compounds that Selectively Target Cancer Cells with p53 Mutations: Cytotoxicity of p53 Null Cells at the Nonpermissive Temperature; also: nearly all actives have a fitted effect of over 50% in size;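 as to activity, negative = cell killing: 0% = DMSO only and -100% = full killing by 100 µM tamoxifen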
Details: H1299 p53-null (neo) cells, 39C, ATPlite viability, 24 h; activity, negative = cell killing: at 46.1 µM (top of the series)
Description: NIH Chemical Genomics Center [NCGC] NIH Molecular Libraries Screening Centers Network [MLSCN] MLSCN Grant: 1 X01 MH079844-01 Assay Submitter (PI): Dr. SUN, YI, University of Michigan NCGC Assay Overview: Synthetic Lethal Screen for Compounds to Kill Cancer Cells with p53 Mutation. Tumor suppressor gene p53 serves as a major cellular barrier against tumorigenesis. […] The goal of this screening is to identify small molecule probes that selectively kill cancer cells with mutations in p53. This screening was carried out using two lines of H1299 lung cancer cells. The H1299-p53 A138V line express a temperature sensitive p53 mutant (p53ts) in which the mutant p53 protein (A138V) is in the mutant confirmation when grown at 39C (the nonpermissive temperature) and in the wild type conformation when grown at 32C (the permissive temperature). A H1299-neo line (p53 null) grown at both 39C and 32C were used as counter-screens to filter out false positive associated with temperature shifting. The small molecular compounds that selectively target mutant p53-containing cancer cells were selected as candidate probes for further study. A cytotoxicity assay based on the measurement of ATP contents in cells was used in this screen. Concentration-responses of all the compounds in the library collection were determined in qHTS using the cell lines and temperature conditions as above.
NCGC Assay Protocol Summary: Both the H1299-p53A138V and H1299-neo cell lines were provided by Dr.Yi Sun, a PI at the University Michigan. The cells were maintained and cultured at 37C. The resuspended frozen cells were used to plate the cells in the 1536-well assay plates at a density of 600 cells per well in 5 ul medium. The assay plates with the cells were incubated at 37C for 16 to 30 hours before the experiments. The library compounds in DMSO solution were added to the cells in assay plates and incubated 24 hours at 39C (for mutant p53 conformation) or 32C (for normal p53 conformation as control). An ATP_lite assay kit (PerkinElmer) was used to determine the cell viability. Tomaxifen (100uM) was used as the positive control for cell killing. Data were normalized to the controls for basal activity (DMSO only) and 100% killing (100uM tamoxifen). AC50 values were determined from concentration-response data modeled with the standard Hill equation. P53 assay protocol: 1. Reagent; 5 uL H1299-p53A138V or H1299-neo cell cells/well 2. Time; overnight; 37C incubation 3. Compounds; 23 nL; 5.9 nM to 46 uM 4. Controls; 23 nL; Tamoxifen 100 uM 5. Time; 24 hr; 39C incubation 6. Reagent; 3 uL; ATP_Lite reagent 7. Time; 20 min; Room Temperature 8. Detection; Luminescence; Viewlux plate reader Keywords: p53, synthetic lethal, cancer, cell viability, cytotoxicity, H1299 cell line, luminescence, MLSMR, MLSCN, NIH Roadmap, qHTS, NCGC
For `Cc1ccc(NC(=O)c2cccc(N3CCCS3(=O)=O)c2)cc1`, the Potency was inconclusive: 5.01 µM [cytotoxic, partial curve]. In the case of `Cc1cc(C)c2oc(C(=O)Nc3sc4c(c3C(=O)NCc3ccco3)CCCC4)cc(=O)c2c1`, the Potency is reported as inconclusive: 0.0794 µM [cytotoxic, full curve, poor fit]. With `O=C(Nc1ccc2nc(SCCOc3ccccc3Cl)sc2c1)c1cccs1` the Potency was inconclusive: 0.794 µM [cytotoxic, full curve, poor fit]. With `Cc1cc(-c2ccc(C)c(S(=O)(=O)N(C)c3ccc(C)c(C)c3)c2)on1` the Potency was inconclusive: 35.5 µM [cytotoxic, single point]. With `CCOC(=O)c1ccc(N2C(=O)c3n[nH]c(-c4cccs4)c3C2c2ccc(C(C)C)cc2)cc1` (centres undefined) the Potency was inconclusive: 31.6 µM [cytotoxic, single point]. In the case of `COc1ccccc1-c1cc(C(F)(F)F)nc(S(=O)(=O)CCCC(=O)Nc2cc(OC)c(OC)c(OC)c2)n1`, the Potency is reported as inconclusive: 15.8 µM [cytotoxic, single point]. For `Cc1ccc(CNS(=O)(=O)c2cc(C(=O)Nc3cccc(C(F)(F)F)c3)ccc2F)cc1`, the Potency was inconclusive: 25.1 µM [cytotoxic, single point]. For `Cc1noc(/C=C/N(C)C)c1S(=O)(=O)N1CCCC(C(=O)Nc2ccc(F)cc2F)C1` (centres undefined), the Potency was “inactive”. With `Nc1cc(=O)nc(SCC(=O)Nc2cccc(Cl)c2)n1CCc1ccccc1` the activity, negative = cell killing was inconclusive: -32.9% [cytotoxic]. In the case of `CN(C)c1oc(/C=C/c2ccc(F)cc2)nc1C#N`, the Potency is reported as inconclusive: 1 µM [cytotoxic, full curve, poor fit]. With `CCOC(=O)c1c(-c2ccccc2)csc1NC(=O)c1nc(S(=O)(=O)CC)ncc1Cl` the Potency was inconclusive: 31.6 µM [cytotoxic, single point]. With `CCOC(=O)c1cc(-c2ccccc2)n(CCC(=O)Nc2ccc(Cl)c(C(F)(F)F)c2)c1C` the Potency was inconclusive: 35.5 µM [cytotoxic, single point]. With `O=S(=O)(Nc1nc2n(n1)C(c1ccc(F)cc1)C=C(c1ccccc1)N2)c1ccc(Cl)cc1` (centres undefined) the Potency was “inactive”. In the case of `O=S(=O)(Nc1ccc2nc(-c3cccc(Cl)c3)oc2c1)c1ccccc1`, the Potency is reported as inconclusive: 11.2 µM [cytotoxic, partial curve]. In the case of `Cc1ccc(C)c(Cn2c(=O)n(CCCCCC(=O)NCc3ccc4c(c3)OCO4)c(=O)c3sccc32)c1`, the Potency is reported as inconclusive: 10 µM [cytotoxic, single point]. With `Cc1ccc(NC(=O)c2sc3nc(-c4ccc(F)cc4)ccc3c2N)cc1F` the Potency was inconclusive: 31.6 µM [cytotoxic, single point]. With `COc1cccc(NC(=O)CSc2nnc(-c3cccs3)o2)c1` the Potency was inconclusive: 12.6 µM [cytotoxic, single point]. For `Cc1ccc(Cl)cc1N1CCN(CCCNC(=O)c2nnc(Cc3cccc(Cl)c3)o2)CC1`, the Potency was inconclusive: 31.6 µM [cytotoxic, single point]. In the case of `Cc1ccc2c(CC(=O)N(Cc3ccc(Cl)cc3)Cc3ccco3)coc2c1`, the Potency is reported as inconclusive: 31.6 µM [cytotoxic, single point]. With `C=Cc1ccc(CSc2nnc(C)n3c2cc2occc23)cc1` the Potency was inconclusive: 20 µM [cytotoxic, single point]. In the case of `CCOc1ccc(-c2cn3c(n2)sc2cc(C(=O)NCCCN(CC)CC)ccc23)cc1`, the Potency is reported as “inactive”. For `COc1cccc(CNC(=O)c2oc3ccc4c(c3c2C)C(=O)CC(C)(C)O4)c1OC`, the Potency was inconclusive: 12.6 µM [cytotoxic, partial curve]. For `O=C(Nc1cc2ccc(O)cc2oc1=O)c1ccc(F)cc1`, the Potency was inconclusive: 1.26 µM [cytotoxic, full curve, poor fit]. For `CN(Cc1ccc(F)cc1)S(=O)(=O)c1nnc(NC(=O)c2ccc(F)cc2)s1`, the Potency was inconclusive: 12.6 µM [cytotoxic, partial curve]. In the case of `COc1ccc(Cl)cc1NC(=O)CSc1c2c(nc3ccccc13)CCC2`, the Potency is reported as “inactive”. With `CN1CCSc2ccc(C(=O)NCc3ccccc3F)cc21` the Potency was inconclusive: 12.6 µM [cytotoxic, partial curve]. For `Cc1cc(C)c2c(n1)nn1c(C)c(CCC(=O)NCc3ccccc3Cl)c(C)nc21`, the Potency was “inactive”. With `CC(C)Oc1ccc(CNC(=O)Nc2ccc3c(c2)N(C)C(=O)c2ccccc2S3)cc1` the Potency was inconclusive: 28.2 µM [cytotoxic, single point]. For `COc1ccccc1NC(=O)CN1C(=O)CC(c2ccc(C)c(C)c2)=Nc2ccccc21`, the Potency was inconclusive: 15.8 µM [cytotoxic, single point]. For `Cc1ccc(OCC(=O)Nc2cc(-c3nc4ccccc4[nH]3)ccc2C)c(C)c1`, the Potency was “inactive”. For `CCn1c(=O)sc2cc(NC(=O)c3cccc(OC)c3)ccc21`, the Potency was inconclusive: 3.98 µM [cytotoxic, partial curve]. In the case of `O=C(NC1CCN(C(=S)NCc2ccco2)CC1)c1ccc(F)cc1`, the Potency is reported as “inactive”. With `Cc1c(NC(=O)Cc2ccc(F)cc2)cccc1-c1nc2cccnc2s1` the Potency was inconclusive: 12.6 µM [cytotoxic, single point]. With `COc1ccc(-c2cn3c(n2)sc2cc(C(=O)NCc4cccs4)ccc23)cc1` the Potency was inconclusive: 3.16 µM [cytotoxic, full curve, poor fit]. In the case of `O=C(Nc1ccc(F)cc1)N1CCN(c2ccc3nnc(-c4ccc(F)cc4)n3n2)CC1`, the Potency is reported as “inactive”. In the case of `Cc1ccccc1CNC(=O)c1ccccc1NC(=O)c1nsc2ccccc12`, the Potency is reported as inconclusive: 0.0316 µM [cytotoxic, full curve, poor fit]. For `COc1ccccc1-c1nnc(C2CCN(C(=O)c3cccc(Cl)c3)CC2)o1`, the Potency was inconclusive: 0.158 µM [cytotoxic, full curve, poor fit]. For `COc1cc(C2CC(=O)c3c([nH]c(C(=O)OCc4ccc(C)cc4)c3C)C2)cc(OC)c1OC` (centres undefined), the Potency was inconclusive: 2.51 µM [cytotoxic, full curve, poor fit]. In the case of `O=C(Nc1ccc2nc(-c3cccs3)[nH]c2c1)c1ccco1`, the Potency is reported as inconclusive: 12.6 µM [cytotoxic, partial curve]. With `Cc1ccc(-n2ccnc(NCCc3ccc(S(N)(=O)=O)cc3)c2=O)c(C)c1` the Potency was “inactive”. In the case of `Cc1cccc(OCC(=O)Nc2ccc3nc(Nc4cccc(C(F)(F)F)c4)cc(C)c3c2)c1`, the Potency is reported as “inactive”. For `O=S(=O)(Nc1cccc(-c2ccc(N3CCCCCC3)nn2)c1)c1ccccc1`, the Potency was inconclusive: 31.6 µM [cytotoxic, single point]. For `Cc1ccccc1-c1nc(CS(=O)(=O)CC(=O)Nc2cccc(C(F)(F)F)c2)c(C)o1`, the Potency was inconclusive: 15.8 µM [cytotoxic, partial curve]. For `O=C(Cc1ccc(F)cc1)NCCc1csc(-c2cccc(F)c2)n1`, the Potency was “inactive”. For `Cn1nnnc1SCCNCc1ccccc1OCc1ccc(Cl)cc1Cl`, the Potency was inconclusive: 31.6 µM [cytotoxic, single point]. For `CCOc1ccc(NC(=O)Cn2cc(C(=O)c3ccc(C)cc3)c(=O)c3cc4c(cc32)OCCO4)cc1`, the Potency was “inactive”. With `CCCN1CCN(c2ncc3c(n2)CCN(Cc2ccc(OC)c(OC)c2OC)C3)CC1` the Potency was inconclusive: 3.98 µM [cytotoxic, full curve]. For `CCCCc1nn2c(=O)cc(COC(=O)c3cccc(NC(=O)c4cccc(C)c4)c3)nc2s1`, the Potency was “inactive”. In the case of `CSc1ncc(Cl)c(C(=O)Nc2nc3ccc(F)cc3s2)n1`, the Potency is reported as “inactive”. With `CCCCN(C)CC(O)Cn1cc(/C=C/C(=O)c2ccc(OC)c(OC)c2)c2ccccc21` (centres undefined) the Potency was active: 12.6 µM. For `Fc1cccc(Cl)c1CNc1n[nH]c(-c2ccco2)n1`, the Potency was inconclusive: 8.91 µM [cytotoxic, partial curve]. With `C#CCn1c(/C=C/c2ccc(Cl)cc2)nc2ccccc21` the Potency was active: 3.98 µM. In the case of `Cc1c(Cl)cccc1NC(=O)Cn1nc(C(F)(F)F)c2c1CCC2`, the Potency is reported as inconclusive: 0.501 µM [cytotoxic, single point]. With `Cc1ccc(C2=Nc3ccccc3N(CC(=O)Nc3ccccc3C)C(=O)C2)cc1C` the Potency was inconclusive: 10 µM [cytotoxic, partial curve]. For `CC(=O)N(Cc1cccnc1)c1nc2ccc(F)cc2s1`, the Potency was “inactive”. In the case of `COc1ccc(CNC(=O)COC(=O)CCCOc2ccc(Cl)cc2Cl)cc1`, the Potency is reported as inconclusive: 0.01 µM [cytotoxic, partial curve]. In the case of `COc1ccc(-c2nc3ccccc3n2Cc2ccc(C(C)C)cc2)cc1`, the Potency is reported as inconclusive: 31.6 µM [cytotoxic, single point]. With `COc1cccc(CCNC(=O)c2ccc(Cn3c(SCc4ccccc4)nc4cccnc43)cc2)c1` the Potency was inconclusive: 12.6 µM [cytotoxic, partial curve]. With `O=C(Nc1cccc(Br)c1)Nc1nc2c(s1)CCCCCC2` the Potency was inconclusive: 0.251 µM [cytotoxic, full curve, poor fit]. With `COC(=O)c1ccccc1NC(=O)c1cc2ccccn2n1` the Potency was inconclusive: 15.8 µM [cytotoxic, partial curve, poor fit]. In the case of `COc1ccc(Cn2c(CCC(=O)Nc3ccc(Br)c(C)c3)nc3cccnc32)cc1`, the Potency is reported as inconclusive: 17.8 µM [cytotoxic, single point]. For `CN(C)c1ccc(C(=O)Nc2sc(Nc3ccccc3)nc2C(N)=O)cc1`, the Potency was inconclusive: 20 µM [cytotoxic, partial curve]. For `Cc1oc2c(cc(NS(=O)(=O)c3ccc(Br)cc3)c3ccccc32)c1C(=O)OCc1ccccc1`, the Potency was inconclusive: 31.6 µM [cytotoxic, partial curve, poor fit]. With `COc1ccc(C)cc1Nc1nc2c(S(=O)(=O)c3cc(C)ccc3C)nnn2c2ccsc12` the Potency was inconclusive: 2.51 µM [cytotoxic, partial curve].

Reference: PubChem BioAssay AID904 (National Center for Advancing Translational Sciences (NCATS), 2007)
Potency is read from the fitted curve at half-maximal effect; tags tell the direction and shape of the fitted curve.
